± gives the standard deviation of the averaged measurements. This is one part of the list.
tested on: PfAP2-G AP2 domain (GST-tagged); experiment: gcPBM binding intensity (ln(normalized median fluorescence intensity)); higher = stronger DNA binding
In short: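 An Agilent 4 × 180k array carrying primer-extended double-stranded 36-bp intergenic genomic probes and negative controls received GST-tagged P. falciparum DNA-binding domains expressed in E. coli, about 25 μg on average, for 1 h. The binding buffer contained 1× PBS, 1% milk, 0.2 mg/ml BSA, 0.5% salmon testes DNA and 0.03% Triton X-100. Binding intensity is the top Masliner-normalised natural-log median intensity across replicate spots of either probe orientation, read after Alexa488 anti-GST antibody staining and a 488 nm scan.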

Sequence | gcPBM binding intensity (ln)
CATATAAAAGGACACACACACACATATAAATATGTA [CACACA_site6568] | 11.2 ± 0.9
TAATTTTTTTTTTTTTTTTTTGTACTTCATTTTTAT [CACACA_negctrl_site1395] | 11.3 ± 1.1
AAAAAAAAAAAAAGTACATGCAATATGGATCTTAAA [TGCATGCA_site367] | 11.4 ± 0.82
ATAAAAAAAATTTGCACACCTTCAAAGTAATATATA [CACACA_site1584] | 10.2 ± 0.18
TATGTGTGCAAAAACTGTACACATTAAAGGTATATA [XGTACX_site7627] | 11.7 ± 1.1
ATTATAATGTTAATGTGTACATATGATTCCTTAATT [XGTACX_site181] | 11.3 ± 0.74
TATGTTTTTACATATTGTACATATTCTTGTAATACG [XGTACX_site1179] | 11.2 ± 0.67
TACTTTCAAAAGATCACACATATATATATATATATA [CACACA_site5630] | 10.2 ± 0.61
TAATAACATACAGACACACACGTAAAAGCACGTGTA [CACACA_site4299] | 10.14 ± 0.064
TATGGTTACATTATATGTACTAAACGAATATTTTTA [XGTACX_site5694] | 10.9 ± 0.55
TATACAAGTATATAGGTGCATATATAAGTATATATT [GTGCAC_site9994] | 9.84 ± 0.085
ATAAATAAATAAGTACATATATATATGTATATATAT [TGCATGCA_negctrl_site223] | 11.4 ± 1.1
ATGACATGTTCTAAATGTACATTTTTTAACCCTTTT [XGTACX_site1858] | 10.8 ± 0.4
AGTAATTTAAGGAATACACACAAGAAAAAAATAAGA [CACACA_site6177] | 10.3 ± 0.11
CATTAAAAGTATAATTGTACTTTTCATTTATATATT [XGTACX_site7536] | 11.3 ± 0.64
ACTACATTATGTCATACATGCATACATACGTGGTTT [TGCATGCA_site732] | 10.3 ± 0.14
AGATTATTTAGAATGTGTACATATTACACATACATG [XGTACX_site8634] | 11.3 ± 0.81
TAATATATATATATATGTACATATATATTATGTATA [XGTACX_site4690] | 11.2 ± 0.68
TTCTCAAAATTAAAATAACAGATTAACGAACTAACG [CACACA_negctrl_site1720] | 9.91 ± 0.099
CATACATACAAACACACACACACACCCATATATATA [CACACA_site2918] | 10 ± 0.4
TTTTTAACCAAACATCAAAACATATTTTTTTGTTAT [CACACA_negctrl_site385] | 9.93 ± 0.18
GTATACCTTTTGACATGTACGTATGTATATTTGGGT [XGTACX_site720] | 11.5 ± 0.98

Sequence | gcPBM binding intensity (ln)
ATAATATGAGTCCCACAAAATAGACCATACGAATAT [CACACA_negctrl_site50] | 11 ± 0.59
TATAAATTTATACCAGTGCATTTTGAAATATATATA | 9.98 ± 0.11
AAAAATATTAAAAGGCGTACAATACCTGTATGCAAC [XGTACX_site6069] | 11.6 ± 1
CATGTAAAATATTAAAGTACATGATTATATATATAT [XGTACX_site7486] | 11.1 ± 0.67
TATATATTTTATATATGTACATATTTATATGTTTCT [XGTACX_site1818] | 11.3 ± 0.82
TTTTTTTTTTTTTGAACACACATTATTAACTTTTAT [CACACA_site6281] | 9.88 ± 0.28
CGCGAACATACATACACACACATATATATATATGTA [CACACA_site205] | 9.99 ± 0.071
AAAAAAAAGTTATATACACACATATAAATATAAATA [CACACA_site6683] | 9.805 ± 0.035
TATATTTATATAATATGTACATATTTTTTAATATTT [XGTACX_site3834] | 11.2 ± 0.72
TATTTTATTTTCCGAAGTACAAAAGCAAAAAAAAAC [XGTACX_site103] | 11.3 ± 0.87
AGCTAAAATATTTTTGCACACGATTTTTTTTTTTTT [CACACA_site1140] | 9.89 ± 0.042
TATATTCAATTTTTGGTGCGTAAATTAATACAAACA [GTGCAC_site9764] | 10.3 ± 0.35
ATATATTATATTATATGTACTTAAAAAAGTGCAAAG [XGTACX_site318] | 11.4 ± 0.88
TATTAATTTTTCCTTTTTTTTTTACCCCTTTGTACA [CACACA_negctrl_site947] | 10.05 ± 0.014
ATGCACGGAAAAATATGTACTTAATTTCAATAATAT [XGTACX_site8311] | 11.3 ± 0.79
CGGACATACTAACGGACACACGTAAGAAAAAAAAAG [CACACA_site4504] | 11 ± 0.64
TATATGTCCATATTTCCACACACATATTATTTTTAT [CACACA_site9266] | 10.8 ± 0.42
TTTTTTCAATAAATAATCGTATATTGAATAATAATA [CACACA_negctrl_site822] | 9.59 ± 0.042
AGAGAGAACGGTATAACATGCGATAAATTTTAGAAG [TGCATGCA_site357] | 9.89 ± 0.2
ATTTTAATTTTGTATACACACATTTGAATTATTAAT [CACACA_site3528] | 10.1 ± 0.12
AATATATACATATATACACACACATATATATATATA [CACACA_site8907] | 10 ± 0.27
TAAAATGTTATAAGAACATGCAATTCCTTTTATTAT [TGCATGCA_site408] | 9.56 ± 0.21
